From PubChem BioAssay AID1745853 (National Center for Advancing Translational Sciences (NCATS), 2022) come the findings set out here.

The structures appear in SMILES notation. Values joined by “and” are separate entries in the source; they are usually repeats but may differ in a detail not shown here. Identical values can stand only once. Some of the results follow. These are further read-outs of the screen, such as a control signal, another cell line or another target. No call is given for them.

Assay in all cases: Primary Screen for Target Class Profiling of Small Molecule Inhibitors of Methyltransferases
Test [1] concerns the target Glycine N-methyltransferase (Homo sapiens) (UniProt Q14749). The settings on record: purified enzyme, MTase-Glo SAH luminescence; measured here: GNMT inhibition; at 40 µM; stronger effect = lower value. In outline:
(§1)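 Each enzyme was reacted with SAM and its substrate, with compounds tested once at 40 uM; SAH formed was read by MTase-Glo luminescence.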

The target in test [2] is Guanidinoacetate N-methyltransferase (Homo sapiens) (UniProt Q14353). Conditions: purified enzyme, MTase-Glo SAH luminescence; measured here: GAMT inhibition; at 40 µM; stronger effect = lower value. In outline: as §1
The target of test [3] is Histamine N-methyltransferase (Homo sapiens) (UniProt P50135). The settings on record: purified enzyme, MTase-Glo SAH luminescence; measured here: HNMT inhibition; at 40 µM; stronger effect = lower value. In outline: as §1
For test [4], the target named is Nicotinamide N-methyltransferase (Homo sapiens) (UniProt P40261). Conditions: purified enzyme, MTase-Glo SAH luminescence; measured here: NNMT inhibition; at 40 µM; stronger effect = lower value. Summed up:
as §1

Test [5] deals with Phenylethanolamine N-methyltransferase (Homo sapiens) (UniProt P11086). The settings on record: purified enzyme, MTase-Glo SAH luminescence; measured here: PNMT inhibition; at 40 µM; stronger effect = lower value. Summed up:
as §1
% is scaled to controls: 0 for no effect and ±100 for the full control effect.

For the molecule `COc1ccc(CN2C(=O)c3cc4ccccc4n3CC2(C)C(=O)NCCCOC(C)C)c(OC)c1` (stereo not given), the activity change, negative = inhibition is 1.24% in test [1]; 1.2% in test [2]; 3.47% in test [3]; 0.234% in test [4]; -0.722% in test [5].

As for `COc1cccc(-c2cc(F)ccc2C2Cc3nc(N)nc(C)c3C(=O)N2)n1` (stereo not given), the activity change, negative = inhibition in test [1] is -4.53%; in test [2], -5.37%; in test [3] it was 5.22%; in test [4], -42.8%; in test [5] it was -6.07%.

As to `Cc1cc(C)c(NC(=O)N(Cc2ccc3c(c2)Cc2ccccc2-3)C2CCCCCC2)c(C)c1`, the activity change, negative = inhibition in test [1] is 3.46%; in test [2], -37.5%; in test [3], 2.36%; in test [4], -51.8%; in test [5], -18.2%.

Consider `CN(C)[C@@H]1CN(C(=O)CCc2ccccc2)CC[C@]1(O)c1ccccc1`, for which the activity change, negative = inhibition in test [1] was -6.26%; in test [2], -9.79%; in test [3] it was -4.88%; in test [4], -17.6%; in test [5], -5.75%.

In the case of `COC(=O)C1=CO[C@@H](O[C@@H]2O[C@H](CO)[C@@H](O)[C@H](O)[C@H]2O)[C@@H]2[C@@H](CO)[C@@H](O)C(O)[C@H]12` (stereo not given in full), the activity change, negative = inhibition is 3.5% in test [1]; 2.32% in test [2]; 11.1% in test [3]; -9.14% in test [4]; 5.9% in test [5].

Take `COc1ccc(OC)c(S(=O)(=O)N2CCCCC2c2noc(COCC3CC3)n2)c1` (stereo not given): the activity change, negative = inhibition in test [1] is 4.8%; in test [2], 0%; in test [3], 4.26%; in test [4] it was -3.55%; in test [5] it was 1.2%.

Take `O=C(Cn1c(=O)oc2cc(S(=O)(=O)N3CCCCC3)ccc21)N1CCCCC1`: the activity change, negative = inhibition is -2.92% in test [1]; 3.01% in test [2]; -2.95% in test [3]; 10.4% in test [4]; -4.63% in test [5].

Take `Cc1noc2c(NC3CCC(O)CC3)cc(-c3cccnc3)nc12` (stereo not given): the activity change, negative = inhibition is -7.91% in test [1]; -7.41% in test [2]; -8.56% in test [3]; -13.3% in test [4]; -3.12% in test [5].

Consider `COC(=O)c1ccc(COCC2=CC(C)(C)Oc3ccc(OC)cc32)cc1`, for which the activity change, negative = inhibition in test [1] is -5.59%; in test [2], -6.97%; in test [3], -0.75%; in test [4] it was -15.9%; in test [5] it was -5.28%.

`O=c1cc(N2CCOCC2)oc2c(-c3ccccc3)cccc12`: the activity change, negative = inhibition was -25.1% and 7.08% in test [1]; 2.02% in test [2]; -10% and 8.95% in test [3]; -15.7% and -19.9% in test [4]; 0.033% and -5.66% in test [5].

On to `O=C(c1cccs1)N1Cc2[nH]cnc2C[C@H]1c1nc(-c2ccc3ccccc3c2)no1`, for which the activity change, negative = inhibition in test [1] was -13.4%; in test [2], -7.78%; in test [3], -8.3%; in test [4], -12.4%; in test [5], -32.6%.

As to `O=C(CC1CCCCC1)N1CC(n2cc(COCC3CC3)nn2)C1`, the activity change, negative = inhibition is -2.51% in test [1]; -3.94% in test [2]; -0.269% in test [3]; -4.42% in test [4]; -1.4% in test [5].

Regarding `OC[C@H]1O[C@@H](Oc2ccc(O)c3cccc(O)c23)[C@H](O)[C@@H](O)[C@@H]1O`, the activity change, negative = inhibition in test [1] was 0%; in test [2], -33.7%; in test [3], -9.49%; in test [4] it was -34.8%; in test [5], -50.2%.

For `CN1CCCN(C(=O)c2ccccc2F)c2ccccc21`, the activity change, negative = inhibition in test [1] was -4.68%; in test [2] it was -4.82%; in test [3], -6.73%; in test [4] it was -9.3%; in test [5], -8.21%.

For the molecule `CCOc1ccc(CCNS(=O)(=O)c2ccc3oc(=O)c4ncn(C)c4c3c2)cc1OCC`, the activity change, negative = inhibition was -2.52% in test [1]; -1.52% in test [2]; -3.06% in test [3]; 4.9% in test [4]; -6.76% in test [5].

Consider `CN1C(=O)C(c2ccccc2)CC12CCN(C(=O)c1ccc(F)cc1)CC2` (stereo not given), for which the activity change, negative = inhibition in test [1] is -4.32%; in test [2], -3.68%; in test [3], -0.368%; in test [4] it was -9.79%; in test [5], -4.17%.

Take `Cc1cc2c(cc3n2CC(C)(C(=O)NC2CCCCCCC2)N(Cc2cccs2)C3=O)o1` (stereo not given): the activity change, negative = inhibition in test [1] is -4.93%; in test [2], 3.4%; in test [3], 1.72%; in test [4], -16.7%; in test [5], -1.74%.

On to `CC(C)CCNC(=O)C1c2c(n(C)c3ccccc23)SCC(=O)N1Cc1ccco1` (stereo not given), for which the activity change, negative = inhibition in test [1] is 15%; in test [2], 0%; in test [3], 6.46%; in test [4], 6.65%; in test [5] it was 7.77%.

Take `COCCN1CC2(CCCN(C(=O)CNC(N)=O)C2)CCC1=O` (stereo not given): the activity change, negative = inhibition is 1.97% in test [1]; 0.678% in test [2]; 4.15% in test [3]; -3.25% in test [4]; 3.13% in test [5].

With `CC1(C(=O)NC2CCCCCCC2)Cn2c(cc3occc32)C(=O)N1Cc1cccnc1` (stereo not given), the activity change, negative = inhibition in test [1] was -1.12%; in test [2] it was 4.87%; in test [3] it was 4.7%; in test [4] it was 2.72%; in test [5], -1.04%.

`O=C(c1ccccn1)N1CCC(N2CCCC2=O)CC1`: the activity change, negative = inhibition in test [1] is -5.18%; in test [2] it was -11.7%; in test [3] it was -3.82%; in test [4], -8.27%; in test [5], -4.09%.

`Cc1ccc(Cn2c(=O)c3ccccc3n3c(CCC(=O)NC(C)C)nnc23)cc1`: the activity change, negative = inhibition in test [1] was -8.25%; in test [2], 5.1%; in test [3], 2.62%; in test [4] it was 6.2%; in test [5], -9.76%.

On to `O=C(O)C1CN(CCCP(=O)(O)O)CCN1` (stereo not given), for which the activity change, negative = inhibition is 4.32% in test [1]; -7.76% in test [2]; 5.73% in test [3]; -10.1% in test [4]; -5.23% in test [5].

Regarding `CC(C)CCn1c(=O)c2ccc(C(=O)NC3CCCCC3)cc2n2c(=O)[nH]nc12`, the activity change, negative = inhibition is -5.62% in test [1]; 2.21% in test [2]; -2.82% in test [3]; -3.72% in test [4]; -9.42% in test [5].

As for `COCCNC(=O)CCCc1nnc2n3nc(-c4ccccc4)nc3c3ccccc3n12`, the activity change, negative = inhibition in test [1] stood at 0.664%; in test [2] it was 4.47%; in test [3], 5.76%; in test [4], 8.81%; in test [5], 1.38%.

Regarding `CC(C)c1ccc(N2C[C@]34C=C[C@H](O3)C(C(=O)N3CCSCC3)C4C2=O)cc1` (stereo not given in full), the activity change, negative = inhibition is -3.09% in test [1]; -1.49% in test [2]; 1.88% in test [3]; -2.2% in test [4]; -1.52% in test [5].

Regarding `C=CCN1CC2(CCC1=O)CCN(C(=O)C1CC=CCC1)CC2` (stereo not given), the activity change, negative = inhibition in test [1] was -2.07%; in test [2], -1.74%; in test [3] it was 0%; in test [4], -8.34%; in test [5], -0.219%.

Turning to `O=C(Nc1ccccc1F)N1Cc2c(sc3c2CCCC3)-n2cccc2C1c1ccc(F)cc1` (stereo not given), the activity change, negative = inhibition in test [1] is 3.56%; in test [2], 0%; in test [3] it was 4.62%; in test [4] it was -1.26%; in test [5], 6.79%.

As to `Cc1ccc(CNC(=O)Cn2nc3n(CCCOC(C)C)c(=O)c4ccccc4n3c2=O)cc1`, the activity change, negative = inhibition in test [1] is -1.35%; in test [2], 3.52%; in test [3] it was 0.452%; in test [4], 1.56%; in test [5] it was 1.65%.
